Reference: PubChem BioAssay AID1347073 (National Center for Advancing Translational Sciences (NCATS), 2019)
About 200 (0.44%) of roughly 45,000 compounds were called active. Roughly 7% stayed inconclusive and do not appear here. Calls follow the shape of the dose curve; as a rule, active = well fitted activation curve with a large enough effect; inconclusive = small, poorly fitted or top-dose-only effect; inactive = no such curve, though single readings can be large or run the other way. This is one part of the list.

Test: qHTS of TDP-43 Inhibitors: NCGC Sytravon Library Screen; also: 0% is about no effect; nearly all actives have a fitted effect of over 55% in size
Conditions: yeast TDP-43 toxicity rescue, BacTiter-Glo growth, 24 h; series mostly up to 46.1 µM; growth rescue (activation): at the top concentration
Outline: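 TDP-43-expressing yeast, pregrown in raffinose, seeded at OD600 0.02 in galactose medium with compound for 24 hr at 30 deg C. Growth read by BacTiter-Glo luminescence, so rescue of toxicity appears as activation.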

Row | SMILES | growth rescue (activation)
1 | COc1cccc(Nc2nc(CN3CCOCC3)nc3sc4c(c23)CCCC4)c1 | inactive: -1.53%
2 | CC(=O)Nc1ccc(S(=O)(=O)NCC2CCC(C(=O)NC(C)c3ccccc3)CC2)cc1 (stereo not given) | inactive: 15.6%
3 | CN(Cc1ccc(F)cc1)C(=O)COc1ccc2ccccc2c1 | inactive: 7.08%
4 | Cc1ccc(/C=N/NC(=O)CSc2ccccn2)o1 | inactive: 14.5%
5 | COc1cccc(C(=O)CC(C(=O)O)c2ccc(F)cc2)c1 (stereo not given) | inactive: -4.99%
6 | CCCCC(=O)Nc1cccc(-c2csc(-c3ccccc3)n2)c1 | inactive: 3.38%
7 | Cc1cc(C(=O)Nc2ccc(F)c(Cl)c2)on1 | inactive: 13.5%
8 | CNC(=S)N/N=C/c1cc(C)ccc1C | inactive: 14.2%
9 | CC/C(=C\C(=O)c1cccnc1)Nc1ccc(C)c(C)c1 | inactive: -8.19%
10 | Cc1c(C(=O)N/N=C/C(C)C)[nH]c2c([N+](=O)[O-])cccc12 | inactive: 7.34%
11 | COc1ccc(-c2noc(C(C)NC(=O)c3ccco3)n2)cc1OC (stereo not given) | inactive: 0.895%
12 | COC(=O)c1ccc(NC(=S)NN2CCCCC2c2cccnc2)cc1 (stereo not given) | inactive: -2.12%
13 | CCOc1ccc(C(=O)Nc2ccc(Cc3ccncc3)cc2)cc1Br | inactive: 7.2%
14 | C/C(=N\NC(=O)c1c(C)nc2ccccn12)c1ccc(C(C)(C)C)cc1 | inactive: 2.09%
15 | c1ccc(-c2nc(-n3nc4ccccc4n3)nc3ccccc23)cc1 | inactive: 27.5%
16 | CCOC(=O)c1ccc(NC(=O)c2nc(S(=O)(=O)Cc3ccccc3)ncc2Cl)cc1 | inactive: -5.55%
17 | Cc1ccccc1-n1c(SCC(=O)O)nc2sc3c(c2c1=O)CCCC3 | inactive: -9.29%
18 | CN(C)c1ccc(/C=N/Nc2nncc3ccccc23)cc1 | inactive: 6.4%
19 | Cc1nn(CCCC(=O)NCc2ccccc2)c(=O)c2c1sc1ccccc12 | inactive: 12.4%
20 | N#C/C(=N/Nc1ccccc1[N+](=O)[O-])C(N)=S | inactive: -5.05%
21 | O=C1NN(c2ccc(Cl)c(Cl)c2)C(=O)/C1=C/c1ccc(-c2ccccc2C(=O)O)o1 | inactive: 7.77%
22 | CCOC(=O)c1sc(NC(=O)COC(=O)CNC(=O)C2CCCCC2)c(C(=O)OCC)c1C | inactive: 10.5%
23 | O=C(CN1C(=O)COc2ccccc21)NC1CCCC1 | inactive: -8.21%
24 | CCCN1CCN(C(=O)CCNC(=O)Cn2cnc3ccccc3c2=O)CC1 | inactive: -7.18%

Row | SMILES | growth rescue (activation)
25 | C[C@@H](C(=O)NNC(=O)c1ccc(Cl)cc1)N1C(=O)C2CC=CCC2C1=O (stereo not given in full) | inactive: -19.1%
26 | COc1ccc(/C(=N\O)c2nccc3cc(OC)c(OC)cc23)cc1OC | inactive: 2.18%
27 | COc1ccc(C(=O)CN2C3=NCCCN3c3ccccc32)cc1OC | inactive: -13.8%
28 | O=C(Nc1ccc(N2CCOCC2)cc1N1CCOCC1)c1ccc(F)cc1 | inactive: 28%
29 | O=C(Nc1cc(N2CCOCC2)ncn1)c1ccccc1 | inactive: 16.4%
30 | O=C(Nc1ccc(OCC(=O)N2CCOCC2)cc1)c1ccccc1F | inactive: 10.5%
31 | CC(=O)Nc1nc(C)c(C(C)C)s1 | inactive: 8.78%
32 | COc1ccc(S(=O)(=O)N2CCN3CCCC3C2)cc1 (stereo not given) | inactive: -14.1%
33 | CCC(=O)NNc1ccc(Br)cc1 | inactive: -2.47%
34 | CC(=O)C1=C(C)NC(SCC(N)=O)=C(C#N)C1CC(C)C (stereo not given) | inactive: -4.19%
35 | CS(=O)(=O)n1nc(-c2ccco2)nc1N | inactive: 7.08%
36 | O=C(CN1CCN(Cc2ccc3c(c2)OCO3)CC1)Nc1ccc2[nH]c(=O)[nH]c2c1 | inactive: 2.66%
37 | CC1CCCCC1NC(=O)c1cc(S(=O)(=O)N2CCOCC2)ccc1Cl (stereo not given) | inactive: 8.46%
38 | COc1ccccc1NC(=O)N1CC=C(c2c[nH]c3ccccc23)CC1 | inactive: 10%
39 | Nc1nc(N)nc(COc2ccccc2)n1 | inactive: -3.07%
40 | COc1ccc2c(c1)c(C(=O)N/N=C/c1ccccc1Cl)c(C)n2C | inactive: 0.154%
41 | CCOc1ccc2[nH]c3c(=O)n(CCc4ccc(OC)cc4)cnc3c2c1 | inactive: 7.37%
42 | COc1ccc(OC)c(C2C=C(C34CC5CC(CC(C5)C3)C4)NC(=S)N2)c1 (stereo not given) | inactive: 11.8%
43 | O=C(O)COc1ccccc1/C=N/NC(=O)CSc1nc2ccccc2n1Cc1ccccc1Cl | inactive: 13.1%
44 | COC(=O)CSC1=C(C#N)C(c2ccc(C)o2)CC(=O)N1 (stereo not given) | inactive: -17%
45 | COc1ccc(CNC(=O)[C@H](Cc2c[nH]c3ccccc23)NC(C)=O)cc1OC | inactive: 6.34%
46 | CN1CCN(C(=S)Nc2cccc(C(F)(F)F)c2)CC1 | inactive: 18.5%
47 | COc1ccc(CN2CCN(C(=O)C3CCN(S(=O)(=O)c4cccs4)CC3)CC2)c(OC)c1OC | inactive: 15.2%
48 | C=CCN(C(=O)CNC(=O)c1cccs1)C(C(=O)NC1CCCCC1)c1cccnc1 (stereo not given) | inactive: 11.3%

Row | SMILES | growth rescue (activation)
49 | Cc1ccc(NC(=O)c2cccs2)cc1S(=O)(=O)Nc1cccc(Cl)c1 | inactive: 18.1%
50 | O=C(N/N=C/c1ccccc1O)c1ccc2c(c1)OCO2 | inactive: 3.65%
51 | Cc1noc(NS(=O)(=O)c2ccc(NC(=O)c3ccc(Cl)c(S(=O)(=O)N(C)c4ccccc4)c3)cc2)c1C | inactive: 24.8%
52 | CCOc1ccc(NC(=O)C(=O)N/N=C\c2ccc(CNS(=O)(=O)c3ccccc3)o2)cc1 | inactive: 13.4%
53 | O=c1cc(CN2CCCCC2)nc(C2CC2)[nH]1 | inactive: -15.2%
54 | O=C(O)CCCC(=O)N1N=C(c2ccccc2)CC1c1cccs1 (stereo not given) | inactive: 1.69%
55 | N#CCCn1cc(C(=O)N2CCOCC2)c(-c2ccc3c(c2)OCCO3)n1 | inactive: 9.4%
56 | COc1cc(CNC(=O)c2cc(-c3cc(F)ccc3OCC3CCCO3)n[nH]2)cc(OC)c1 (stereo not given) | inactive: 10%
57 | COc1ccc(NC(C)=O)cc1S(=O)(=O)Nc1ccc(OCc2ccccc2)cc1 | inactive: 0.952%
58 | O=C(CS(=O)(=O)c1ccccc1)Nc1nnc(C(F)(F)F)s1 | inactive: 16.6%
59 | C=CCN(C(=O)C1=NN(C2CCS(=O)(=O)C2)C(=O)CC1)c1nc(-c2ccc([N+](=O)[O-])cc2)cs1 (stereo not given) | inactive: 14%
60 | CCCn1c(SCC(=O)N2CCc3ccccc32)n[nH]c1=O | inactive: 1.36%
61 | CCC1=NN2C(=N)/C(=C\c3cccn3-c3ccc(C)c(C)c3)C(=O)N=C2S1 | inactive: -6.87%
62 | CC(C)(C)C(=O)NC(CC(=O)O)c1ccccc1 (stereo not given) | inactive: 7.2%
63 | CN(C)S(=O)(=O)c1ccc(NC(=S)NC(=O)Cc2ccccc2)cc1 | inactive: -6.97%
64 | Cc1ccc(O)c(C2=Nc3ccccc3N=C(c3ccco3)C2)c1 | inactive: 24.3%
65 | CC1CCc2c(sc(NC(=O)c3cccn3C)c2C(N)=O)C1 (stereo not given) | inactive: 17.8%
66 | COCCn1nnnc1C(CC(C)C)N1CCN(c2nc3ccccc3s2)CC1 (stereo not given) | inactive: 5.53%
67 | N#CC1(C#N)C(C(N)=O)C1c1ccccc1 (stereo not given) | inactive: 12.4%
68 | CCc1nnc(N2C(=N)SCC2=O)s1 | inactive: -8.08%
69 | Cn1c(CNC(=O)c2ccc(Cl)cc2)nnc1SCC(=O)NC1CCCC1 | inactive: 14%
70 | O=S(=O)(c1cccc2c(S(=O)(=O)N3CCCC3)cccc12)N1CCCC1 | inactive: 2.53%
